This note sets out measurements from PubChem BioAssay AID360 (National Center for Advancing Translational Sciences (NCATS), 2006).

The whole screen tested about 48,000 compounds, of which about 550 (1.1%) were called active. Another 4% or so got no clear call; they are omitted. Rule as the data show it: active = potency below about 15 µM; inconclusive = mostly about 16 µM to 33 µM; inactive = weaker than that. Some of the results follow. A value given as a limit tells only on which side of the number the result lay.
Potency is read from the fitted curve at half-maximal effect.

UniProt P04062, sequence (P04062 whole entry, looked up): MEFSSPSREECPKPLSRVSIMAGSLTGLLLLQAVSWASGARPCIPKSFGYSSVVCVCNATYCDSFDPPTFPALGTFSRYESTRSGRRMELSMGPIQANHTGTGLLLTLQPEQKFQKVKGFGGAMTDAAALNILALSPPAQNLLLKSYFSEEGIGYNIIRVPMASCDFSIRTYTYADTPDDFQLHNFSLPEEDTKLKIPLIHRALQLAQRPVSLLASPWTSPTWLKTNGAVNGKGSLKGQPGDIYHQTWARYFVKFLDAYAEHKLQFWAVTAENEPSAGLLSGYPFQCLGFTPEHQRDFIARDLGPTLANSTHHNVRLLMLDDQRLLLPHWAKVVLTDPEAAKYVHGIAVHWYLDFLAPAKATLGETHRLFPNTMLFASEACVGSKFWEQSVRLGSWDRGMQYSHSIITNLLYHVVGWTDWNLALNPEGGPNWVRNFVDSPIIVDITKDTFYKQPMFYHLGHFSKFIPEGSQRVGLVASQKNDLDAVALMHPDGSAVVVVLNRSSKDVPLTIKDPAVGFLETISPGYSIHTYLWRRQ

The assay concerns the target Lysosomal acid glucosylceramidase (Homo sapiens) (UniProt P04062). The experiment in a line: Glucocerebrosidase.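 Also: the screen sought inhibitors.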 As to conditions: purified enzyme, resorufin glucoside fluorescence (screen aimed at inhibitors), 20 min. Put shortly:
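Normal human glucocerebrosidase (0.2 nM final) was assayed with resorufin β-D-glucopyranoside (30 uM final) in 50mM citric acid/KH2PO4, 10mM sodium taurocholate, 0.01% tween-20, pH 5.9. Compounds were titrated; fluorescence (Ex 548, Em 600) read after 20 min at RT.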
Consider `c1ccc(N=P(c2nc3ccccc3o2)(N2CCOCC2)N2CCOCC2)cc1`, for which the Potency is inactive: > 76.9 µM. The value for `Cc1noc(NS(=O)(=O)c2ccc(NC(=O)CCC3CCCC3)cc2)c1C` was active: 15 µM. With `O=C(Nc1ccc2c(c1)OCO2)Oc1ccccc1`, the Potency was inactive: > 76.9 µM. As to `CCn1c2ccccc2c2cc(C3C(C#N)=C(N)OC4=C3C(=O)CC(C)(C)C4)ccc21` (configuration not stated), the Potency is inactive: > 76.9 µM.

In the case of `COc1ccc(CN(Cc2nc3ccccc3c(=O)[nH]2)C(=O)C(C)(C)C)cc1`, the Potency is inactive: > 76.9 µM. The value for `CCCCCC(=O)Nc1ccc(N2CCN(CC)CC2)c(Cl)c1` was active: 0.696 µM. The value for `Cc1cc(C(F)(F)F)nc(NCc2cccnc2)n1` was inactive: > 76.9 µM; that for `Cc1cc(C)c(S(=O)(=O)N(C)CC(=O)NC2CCCC2)c(C)c1` was inactive: > 76.9 µM.

`Cc1ccc(-c2noc(CNCCCN(C)C)n2)cc1`: the Potency was inactive: > 76.9 µM.

Regarding `CCCc1cc(=O)[nH]c(SCC(=O)N(Cc2ccccc2)C(C)C)n1`, the Potency is inactive: > 76.9 µM.

For `COCCn1c(C)cc(C(=O)CSc2nncn2-c2ccccc2)c1C`, the Potency is inactive: > 76.9 µM. The value for `O=C(Cc1c(F)c(F)c(F)c(F)c1F)OC12CC3CC(C1)C(=O)C(C3)C2` was inactive: > 76.9 µM; that for `COC(=O)c1ccc(COc2ccc(-c3nn[nH]n3)cc2)cc1` was inactive: > 76.9 µM; that for `COCCNC(=O)NC(=O)COC(=O)Cc1ccc2c(c1)OCCO2` was inactive: > 76.9 µM. The value for `O=C(c1ccco1)N1CCN(c2nc(C(F)(F)F)nc3c2nnn3Cc2ccccc2)CC1` was inactive: > 76.9 µM; that for `CC1=C(C(=O)Nc2ccccc2C)C(c2ccc(C)o2)C2=C(CCCC2=O)N1` (configuration not stated) was inactive: > 76.9 µM; that for `O=C(CNS(=O)(=O)c1ccc(Br)s1)Nc1ccc2c(c1)OCCO2` was inactive: > 76.9 µM. The value for `CC1(C(=O)O)CC(C)(C(=O)O)CC(C)(C(=O)O)C1` (configuration not stated) was inactive: > 76.9 µM; that for `COc1ccc(S(=O)(=O)N2CCSC2c2ccc(N)cc2)cc1` (configuration not stated) was inactive: > 76.9 µM.

Take `Cc1ccc(-c2ccc(=O)n(CCC(=O)NCc3ccccn3)n2)cc1`: the Potency is inactive: > 76.9 µM. Regarding `O=C(NCCCCNC(=O)c1c(F)c(F)c(F)c(F)c1F)c1c(F)c(F)c(F)c(F)c1F`, the Potency is inactive: > 76.9 µM.

Consider `COc1ccc(CN2C(=O)c3cccnc3C2Nc2cc(Cl)c(OC)cc2OC)cc1` (configuration not stated), for which the Potency was inactive: > 76.9 µM. The value for `COc1ccccc1-n1c(SCC(=O)N2CCCCC2)nnc1-c1ccccc1O` was inactive: > 76.9 µM; that for `CCCS(=O)(=O)N1CCN(C(=O)c2cccs2)CC1` was inactive: > 76.9 µM. The value for `CN(Cc1cc2ccccc2[nH]c1=O)S(C)(=O)=O` was inactive: > 76.9 µM; that for `CN(C)S(=O)(=O)N1CCN(S(=O)(=O)c2ccccc2)CC1` was inactive: > 76.9 µM; that for `COc1ccc(C(=O)N2CCCCC2)cc1S(=O)(=O)Nc1ccccc1` was inactive: > 76.9 µM. For the molecule `Cc1cc(=O)c2cc(Cl)ccc2[nH]1`, the Potency is inactive: > 76.9 µM. Turning to `COc1ccccc1C(O)P(=O)(OC(C)C)c1ccc(N(C)C)cc1` (configuration not stated), the Potency is inactive: > 76.9 µM.

In the case of `CC(C)C(=O)N(Cc1ccc2c(c1)OCO2)Cc1ccccn1`, the Potency was inactive: > 76.9 µM. The value for `CCSc1nnc(NC(=O)C2CCCCC2)s1` was “inactive”; that for `CCOC(=O)Cn1c(N2CCOCC2)nc2c1c(=O)[nH]c(=O)n2C` was inactive: > 76.9 µM; that for `Cc1ccc(-n2c(SCc3nnc4n3CCC4)nnc2-c2ccccc2)cc1` was inactive: > 76.9 µM. `CCCC(c1nnnn1Cc1ccco1)N1CCN(C2CCCC2)CC1` (configuration not stated): the Potency was inactive: > 76.9 µM. The value for `CCCCN(CC)S(=O)(=O)c1ccc(C(=O)Nc2nnc(-c3cccs3)o2)cc1` was inactive: > 76.9 µM; that for `Nc1n[nH]c(-c2ccc(F)cc2)n1` was inactive: > 76.9 µM. The value for `CC(NS(=O)(=O)c1ccccc1)C(=O)Nc1nccs1` (configuration not stated) was inactive: > 76.9 µM; that for `Cc1ccc(C(=O)CSc2nnc(-c3ccccc3)n2-c2ccccc2)o1` was inactive: > 76.9 µM. The value for `Cc1cccc(-n2nnnc2SCC(=O)NCCN2C(=O)CSC2=O)c1` was inactive: > 76.9 µM; that for `Cn1c(SCC(=O)NC(C)(C)C)nc(O)cc1=O` was inactive: > 76.9 µM. Consider `Cc1nc(NC(=O)CCCC(=O)Nc2nc(C)c(C)s2)sc1C`, for which the Potency is inactive: > 76.9 µM. For `CCOCCN(C=O)c1cccc(OC)c1`, the Potency is inactive: > 76.9 µM.

Consider `COCCN1CCn2c(nc3cc(NC(=O)NC4CCCCC4)ccc32)C1`, for which the Potency result is “inactive”. As for `COC(=O)Nc1ccc(S(=O)(=O)N(C)CC(F)(F)C(F)F)cc1`, the Potency was inactive: > 76.9 µM. With `COC(=O)c1sc(NC(=O)c2csc3c2CCCC3)nc1C`, the Potency was inactive: > 76.9 µM. The value for `O=C1CC(Cc2ccccc2)C(=O)N1c1ccc(Cl)cn1` (configuration not stated) was inactive: > 76.9 µM; that for `CN(C)CCCN1C(=O)C(=O)/C(=C(/O)c2ccc3c(c2)OCO3)C1c1ccco1` (configuration not stated) was inactive: > 76.9 µM; that for `Cc1cc(C)nc(N2CCC(C(=O)NC3CCCCCC3)CC2)n1` was inactive: > 76.9 µM. The value for `CCn1c(NCc2cc(OC)ccc2OC)nc2ccccc21` was inactive: > 76.9 µM. Consider `CCOCCCNC(=O)c1ccc2c(c1)ncn2C1CCCC1`, for which the Potency was inactive: > 76.9 µM.

As to `CC(C)N(Cc1nc(-c2ccccc2)no1)C(=O)CN(C)S(=O)(=O)c1ccccc1`, the Potency is inactive: > 76.9 µM. The value for `Nc1nc(CSc2nc3ccccc3[nH]2)nc(N2CCOCC2)n1` was inactive: > 76.9 µM; that for `Cc1cccc(S(=O)(=O)C(C#N)c2nc3ccccc3nc2N2CCOCC2)c1` (configuration not stated) was inactive: > 76.9 µM. For the molecule `Cc1c(Nc2ncnc3c2cnn3-c2ccccc2)c(=O)n(-c2ccccc2)n1C`, the Potency was inactive: > 76.9 µM. The value for `O=C1C2=C(c3ccccc31)[N+](=O)[C@@H]1CCCC[C@@H]1N2[O-]` was inactive: > 76.9 µM. Consider `C=CCn1c(C(C)NC(=O)C(C)(C)C)nc2ccccc21` (configuration not stated), for which the Potency is inactive: > 76.9 µM. As for `O=C(NCc1cccs1)C1CC(=O)N(C2CCCC2)C1` (configuration not stated), the Potency was inactive: > 76.9 µM.

In the case of `COc1ccccc1-c1noc(-c2ccccc2C(=O)N2CCOCC2)n1`, the Potency is inactive: > 76.9 µM. The value for `O=C1COc2ccc(C(=O)COC(=O)Cn3cnc4ccccc43)cc2N1` was inactive: > 76.9 µM; that for `COc1cc(C(=O)NCCC(=O)NCCN2CCCCCC2)cc(OC)c1OC` was inactive: > 76.9 µM; that for `O=C(NCc1ccccc1)c1cc(-c2ccco2)on1` was inactive: > 76.9 µM.

With `COc1ccc(C(C)N2CC34C=CC(O3)C(C(=O)O)C4C2=O)cc1` (configuration not stated), the Potency was inactive: > 76.9 µM. The value for `Cc1ccc(NC(=O)c2cc(-c3ccco3)on2)cc1C` was inactive: > 76.9 µM; that for `CCSc1nc2c(c(=O)n1-c1ccc(F)cc1)SCC2` was inactive: > 76.9 µM; that for `COc1ccc2[nH]c(=O)c3c(c2c1)OC(C)(C)C=C3` was inactive: > 76.9 µM.

On to `CCOC(=O)N1CCC(NC(=O)c2ccc(NC(=O)C3CCCO3)cc2)CC1` (configuration not stated), for which the Potency is inactive: > 76.9 µM. The value for `O=C(NCc1ccco1)c1cc(-c2ccccc2)on1` was inactive: > 76.9 µM; that for `COC(=O)COc1ccc(S(=O)(=O)NCCC2=CCCCC2)cc1` was inactive: > 76.9 µM; that for `Nc1nc(CSc2nnnn2-c2ccccc2)nc(N2CCCc3ccccc32)n1` was inactive: > 76.9 µM.

Consider `Cc1cc(C(F)(F)F)nc(SCc2ccc(C(=O)O)o2)n1`, for which the Potency was inactive: > 76.9 µM.

`O=C(O)c1ccccc1C1=Nc2ccc(O)cc2Oc2cc(O)ccc21`: the Potency was inactive: > 76.9 µM. The value for `COCCNC(=O)c1ccccc1NC(=O)COc1ccccc1` was inactive: > 76.9 µM; that for `CC(C)NC(=O)CN1CCN(c2ncccn2)CC1` was inactive: > 76.9 µM. On to `C=CCN1C(=O)c2ccccc2Sc2ccc(C(=O)N3CCN(C)CC3)cc21`, for which the Potency was inactive: > 76.9 µM.

Regarding `Cc1cc(C)n2nc(SCn3nnc4ccccc4c3=O)nc2n1`, the Potency is inactive: > 76.9 µM. Consider `COCCn1c(SCC(=O)Nc2nnc(C)s2)nnc1-c1ccncc1`, for which the Potency was inactive: > 76.9 µM.

On to `COc1ccc(Cl)cc1-c1nc(-c2ccc(NC(=O)c3ccncc3)cc2)no1`, for which the Potency is inactive: > 76.9 µM. Regarding `O=C(COc1ccc(F)cc1)N(CC1=CCS(=O)(=O)C1)c1ccccc1`, the Potency is inactive: > 76.9 µM. The value for `COc1ccc(CCNC(=O)CSc2nnc(CNc3ccc(Cl)cc3)o2)cc1OC` was inactive: > 76.9 µM; that for `Cc1ccc(C)n1-c1ccc(C(=O)NCC2CCCO2)cc1` (configuration not stated) was inactive: > 76.9 µM. The value for `CCOC(=O)c1cnc(=O)[nH]c1C` was inactive: > 76.9 µM; that for `CS(=O)(=O)N1CCCC(C(=O)NCc2cccs2)C1` (configuration not stated) was inactive: > 76.9 µM.

`COc1ccc(-n2nc(C(=O)NCc3ccco3)c3c4ccccc4n(C)c3c2=O)cc1`: the Potency was inactive: > 76.9 µM.

With `O=C(CC(C(=O)N1CCc2ccccc21)n1ccnc1)NCc1cccnc1` (configuration not stated), the Potency is inactive: > 76.9 µM. The value for `c1ccc2[nH]c(NCCCN3CCOCC3)nc2c1` was inactive: > 76.9 µM; that for `COc1cc2c(cc1OC)C(C(=O)Nc1cccc(C)n1)C(c1cccnc1)N(C)C2=O` (configuration not stated) was inactive: > 76.9 µM; that for `Cc1cc(C(=O)CC#N)c(C)n1CC(F)(F)F` was inactive: > 76.9 µM. For `O=C(Cc1ccsc1-c1ccccc1)NO`, the Potency was inactive: > 76.9 µM.

For `Cc1cc(C)cc(NC(=O)CN(C)S(=O)(=O)c2cccc3nsnc23)c1`, the Potency was inactive: > 76.9 µM. As for `CC(C)OP(=O)(c1ccc(N(C)C)cc1)C(O)c1ccccc1F` (configuration not stated), the Potency was inactive: > 76.9 µM. Take `CCOc1ccc(-c2nn3c(-c4ccc(F)cc4)nnc3s2)cc1`: the Potency is inactive: > 76.9 µM. The value for `c1ccc(COc2cccc(CNn3cnnc3)c2)cc1` was inactive: > 76.9 µM.
